Reference: the supplement of paper PMC8728848
This is one part of the list.

How the values were obtained:
Assay in all cases: glycan array binding signal (z-score within array); higher = stronger binding
Conditions in all cases: glycan notation: IUPAC condensed, linker removed
[1] = biological target: Fuc(a1-3)[Gal(b1-4)]GlcNAc(b1-3)Gal(b1-4)[Fuc(a1-3)]GlcNAc
How it was run: (§1)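 Negative Z-scores can be read as non-binding. The Z-score is calculated within each array and then averaged across arrays of one protein sequence at different concentrations or buffers and across linkers. Arrays, 3228 in all, were curated from the Consortium for Functional Glycomics database and kept only where the protein sequence was available.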

[2] = biological target: Fuc(a1-3)[Gal(b1-4)]GlcNAc(b1-3)Gal(b1-4)[Fuc(a1-3)]GlcNAc(b1-3)Gal(b1-4)[Fuc(a1-3)]GlcNAc
How it was run: as §1

[3] = biological target: Fuc(a1-3)[Gal(b1-4)]GlcNAc(b1-3)GalNAc
How it was run: as §1

[4] = biological target: Fuc(a1-3)[Gal(b1-4)]GlcNAc(b1-6)GalNAc
How it was run: as §1

[5] = biological target: Fuc(a1-3)[Gal(b1-4)]GlcNAc(b1-6)[Gal(b1-3)GlcNAc(b1-3)]Gal(b1-4)Glc
How it was run: as §1

[6] = biological target: Fuc(a1-3)[Gal(b1-4)]GlcNAc6S
How it was run: as §1

[7] = biological target: Fuc(a1-3)[Gal3S(b1-4)]Glc
How it was run: as §1

[8] = biological target: Fuc(a1-3)[Gal3S(b1-4)]GlcNAc
How it was run: as §1

[9] = biological target: Fuc(a1-3)[Gal3S(b1-4)]GlcNAc6S
How it was run: as §1

[10] = biological target: Fuc(a1-3)[GalNAc(b1-4)]GlcNAc
How it was run: as §1

[11] = biological target: Fuc(a1-3)[GalNAc(b1-4)]GlcNAc6S
How it was run: as §1

Fuc(a1-4)GlcNAc = biological target: Fuc(a1-4)GlcNAc
How it was run: as §1

Fuc(b1-3)GlcNAc = biological target: Fuc(b1-3)GlcNAc
How it was run: as §1

Gal(a1-2)Gal = biological target: Gal(a1-2)Gal
How it was run: as §1

Gal(a1-3)Gal = biological target: Gal(a1-3)Gal
How it was run: as §1

Gal(a1-3)Gal(b1-3)GlcNAc = biological target: Gal(a1-3)Gal(b1-3)GlcNAc
How it was run: as §1

[12] = biological target: Gal(a1-3)Gal(b1-3)GlcNAc(b1-2)Man
How it was run: as §1

[13] = biological target: Gal(a1-3)Gal(b1-3)GlcNAc(b1-2)Man(a1-3)[Gal(a1-3)Gal(b1-3)GlcNAc(b1-2)Man(a1-6)]Man(b1-4)GlcNAc(b1-4)GlcNAc
How it was run: as §1

[14] = biological target: Gal(a1-3)Gal(b1-3)GlcNAc(b1-3)GalNAc
How it was run: as §1

[15] = biological target: Gal(a1-3)Gal(b1-3)GlcNAc(b1-6)GalNAc
How it was run: as §1

[16] = biological target: Gal(a1-3)Gal(b1-3)[Fuc(a1-4)]GlcNAc(b1-2)Man(a1-3)[Gal(a1-3)Gal(b1-3)[Fuc(a1-4)]GlcNAc(b1-2)Man(a1-6)]Man(b1-4)GlcNAc(b1-4)GlcNAc
How it was run: as §1

Gal(a1-3)Gal(b1-4)Glc = biological target: Gal(a1-3)Gal(b1-4)Glc
How it was run: as §1

Gal(a1-3)Gal(b1-4)GlcNAc = biological target: Gal(a1-3)Gal(b1-4)GlcNAc
How it was run: as §1

[17] = biological target: Gal(a1-3)Gal(b1-4)GlcNAc(b1-2)Man
How it was run: as §1

[18] = biological target: Gal(a1-3)Gal(b1-4)GlcNAc(b1-2)Man(a1-3)[Gal(a1-3)Gal(b1-4)GlcNAc(b1-2)Man(a1-6)]Man(b1-4)GlcNAc(b1-4)GlcNAc
How it was run: as §1

[19] = biological target: Gal(a1-3)Gal(b1-4)GlcNAc(b1-3)GalNAc
How it was run: as §1

[20] = biological target: Gal(a1-3)Gal(b1-4)GlcNAc(b1-6)GalNAc
How it was run: as §1

[21] = biological target: Gal(a1-3)Gal(b1-4)[Fuc(a1-3)]GlcNAc
How it was run: as §1

[22] = biological target: Gal(a1-3)Gal(b1-4)[Fuc(a1-3)]GlcNAc(b1-2)Man(a1-3)[Gal(a1-3)Gal(b1-4)[Fuc(a1-3)]GlcNAc(b1-2)Man(a1-6)]Man(b1-4)GlcNAc(b1-4)GlcNAc
How it was run: as §1

Gal(a1-3)GalNAc = biological target: Gal(a1-3)GalNAc
How it was run: as §1

[23] = biological target: Gal(a1-3)[Gal(a1-4)]Gal(b1-4)GlcNAc
How it was run: as §1

[24] = biological target: Gal(a1-4)Gal(b1-3)GlcNAc(b1-2)Man(a1-3)[Gal(a1-4)Gal(b1-3)GlcNAc(b1-2)Man(a1-6)]Man(b1-4)GlcNAc(b1-4)GlcNAc
How it was run: as §1

Gal(a1-4)Gal(b1-4)Glc = biological target: Gal(a1-4)Gal(b1-4)Glc
How it was run: as §1

Gal(a1-4)Gal(b1-4)GlcNAc = biological target: Gal(a1-4)Gal(b1-4)GlcNAc
How it was run: as §1

[25] = biological target: Gal(a1-4)Gal(b1-4)GlcNAc(b1-2)Man(a1-3)[Gal(a1-4)Gal(b1-4)GlcNAc(b1-2)Man(a1-6)]Man(b1-4)GlcNAc(b1-4)GlcNAc
How it was run: as §1

[26] = biological target: Gal(a1-4)Gal(b1-4)GlcNAc(b1-3)Gal(b1-4)Glc
How it was run: as §1

Gal(a1-4)GlcNAc = biological target: Gal(a1-4)GlcNAc
How it was run: as §1

Gal(a1-6)Glc = biological target: Gal(a1-6)Glc
How it was run: as §1

B1: Si Bti9 1b-HA (Solanum lycopersicum) (protein)
chain: MFESRPRSVLSLGVFVILVYLSSVPLPVNSQCNRGCDLALASFYVWRGSNLTLISEMFSTSIADIVSYNNRDNIPNQDSVIAGTRINIPFRCDCLNDGEVLGHAFPYRVKSGDTYDLVARNYSDLTTAQWMMKFNSYPENNIPNTVNLSVVVNCSCGNSDVSKDFGLFVTYPVRAEDNLTSVASAANVSEDIIRRYNPAAVSILDIGQGIIYIPGRDRNGNFPPLPTSTDGLSGGAKAPLFFNPAFLYKVVELKLAGRSRTSGYPYDVPDYAGYPYDVPDYALEVLFQ
glycan array binding signal (z-score) [1]: 0.109
glycan array binding signal (z-score) [2]: -0.223
glycan array binding signal (z-score) [3]: 0.058
glycan array binding signal (z-score) [4]: 0.125
glycan array binding signal (z-score) [5]: -0.061
glycan array binding signal (z-score) [6]: -0.621
glycan array binding signal (z-score) [7]: -0.055
glycan array binding signal (z-score) [8]: -0.246
glycan array binding signal (z-score) [9]: 0.077
glycan array binding signal (z-score) [10]: -0.293
glycan array binding signal (z-score) [11]: 0.018
glycan array binding signal (z-score) (Fuc(a1-4)GlcNAc): -0.444
glycan array binding signal (z-score) (Fuc(b1-3)GlcNAc): -0.422
glycan array binding signal (z-score) (Gal(a1-2)Gal): 0.79
glycan array binding signal (z-score) (Gal(a1-3)Gal): -0.361
glycan array binding signal (z-score) (Gal(a1-3)Gal(b1-3)GlcNAc): 9.57
glycan array binding signal (z-score) [12]: -0.219
glycan array binding signal (z-score) [13]: 0.622
glycan array binding signal (z-score) [14]: 0.207
glycan array binding signal (z-score) [15]: -0.449
glycan array binding signal (z-score) [16]: 0.896
glycan array binding signal (z-score) (Gal(a1-3)Gal(b1-4)Glc): 0.083
glycan array binding signal (z-score) (Gal(a1-3)Gal(b1-4)GlcNAc): 1.28
glycan array binding signal (z-score) [17]: 0.595
glycan array binding signal (z-score) [18]: -0.152
glycan array binding signal (z-score) [19]: -0.182
glycan array binding signal (z-score) [20]: -0.333
glycan array binding signal (z-score) [21]: -0.48
glycan array binding signal (z-score) [22]: 0.923
glycan array binding signal (z-score) (Gal(a1-3)GalNAc): -0.344
glycan array binding signal (z-score) [23]: -0.243
glycan array binding signal (z-score) [24]: 0.069
glycan array binding signal (z-score) (Gal(a1-4)Gal(b1-4)Glc): -0.118
glycan array binding signal (z-score) (Gal(a1-4)Gal(b1-4)GlcNAc): -0.314
glycan array binding signal (z-score) [25]: -0.211
glycan array binding signal (z-score) [26]: -0.274
glycan array binding signal (z-score) (Gal(a1-4)GlcNAc): -0.212
glycan array binding signal (z-score) (Gal(a1-6)Glc): 1.13
